Measured values published in PMC4845016.
No constants are given. Whether binding was seen depends on the method and setting. Binding seen in cells or lysates may run through a third protein. Some results given as binding are weak or reduced against the parent protein; the word gives no strength.

T1: Endophilin B1 (mouse) (UniProt Q9JK48)
T1 sequence: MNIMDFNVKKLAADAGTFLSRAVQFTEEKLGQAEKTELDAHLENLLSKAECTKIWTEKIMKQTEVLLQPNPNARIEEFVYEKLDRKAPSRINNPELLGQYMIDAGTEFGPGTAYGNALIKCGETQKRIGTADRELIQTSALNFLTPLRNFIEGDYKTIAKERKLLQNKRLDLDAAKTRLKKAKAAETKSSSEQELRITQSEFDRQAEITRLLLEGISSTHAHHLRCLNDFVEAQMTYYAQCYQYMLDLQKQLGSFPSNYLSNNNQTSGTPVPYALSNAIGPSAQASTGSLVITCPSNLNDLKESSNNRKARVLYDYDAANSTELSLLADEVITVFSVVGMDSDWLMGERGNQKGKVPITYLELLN

T2: Endophilin B2 (human) (UniProt Q9NR46)
T2 sequence: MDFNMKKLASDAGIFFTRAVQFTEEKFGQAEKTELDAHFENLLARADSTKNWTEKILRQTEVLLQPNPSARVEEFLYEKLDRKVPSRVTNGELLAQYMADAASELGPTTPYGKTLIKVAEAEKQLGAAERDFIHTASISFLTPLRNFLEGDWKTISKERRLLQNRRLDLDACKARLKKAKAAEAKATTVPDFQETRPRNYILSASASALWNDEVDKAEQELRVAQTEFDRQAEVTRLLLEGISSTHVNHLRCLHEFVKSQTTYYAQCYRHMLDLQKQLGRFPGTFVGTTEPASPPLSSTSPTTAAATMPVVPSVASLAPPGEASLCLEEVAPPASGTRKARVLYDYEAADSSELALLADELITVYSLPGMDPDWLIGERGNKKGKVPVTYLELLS

T3: Endophilin B2 (human), Q9NR46
T3 chain: T2 sequence

B1: Endophilin B2 (protein, UniProt Q9NR46 1-395)
chain: T2 sequence
B2: EB1 (Δ156–188) (protein, UniProt Q9JK48)
chain: MNIMDFNVKKLAADAGTFLSRAVQFTEEKLGQAEKTELDAHLENLLSKAECTKIWTEKIMKQTEVLLQPNPNARIEEFVYEKLDRKAPSRINNPELLGQYMIDAGTEFGPGTAYGNALIKCGETQKRIGTADRELIQTSALNFLTPLRNFIEGDYSSSEQELRITQSEFDRQAEITRLLLEGISSTHAHHLRCLNDFVEAQMTYYAQCYQYMLDLQKQLGSFPSNYLSNNNQTSGTPVPYALSNAIGPSAQASTGSLVITCPSNLNDLKESSNNRKARVLYDYDAANSTELSLLADEVITVFSVVGMDSDWLMGERGNQKGKVPITYLELLN
B3: Endophilin B1 (protein, UniProt Q9JK48-1 1-365)
chain: T1 sequence
B4: Endophilin B2, Q9NR46 1-395 (protein)
chain: T2 sequence
B5: EB2 (Δ153–185) (protein, UniProt Q9NR46)
chain: MDFNMKKLASDAGIFFTRAVQFTEEKFGQAEKTELDAHFENLLARADSTKNWTEKILRQTEVLLQPNPSARVEEFLYEKLDRKVPSRVTNGELLAQYMADAASELGPTTPYGKTLIKVAEAEKQLGAAERDFIHTASISFLTPLRNFLEGDWATTVPDFQETRPRNYILSASASALWNDEVDKAEQELRVAQTEFDRQAEVTRLLLEGISSTHVNHLRCLHEFVKSQTTYYAQCYRHMLDLQKQLGRFPGTFVGTTEPASPPLSSTSPTTAAATMPVVPSVASLAPPGEASLCLEEVAPPASGTRKARVLYDYEAADSSELALLADELITVYSLPGMDPDWLIGERGNKKGKVPVTYLELLS

Tests used:
Assay in all cases: co-IP; cells co-transfected with flag- and CFP-tagged proteins; lysis in NETN buffer (100 mM NaCl, 20 mM Tris-Cl pH 8.0, 0.5 mM EDTA, 0.5% NP-40); anti-flag M2 beads; washes with high-salt NETN (300 mM NaCl); 4 °C; immunoblotting; EB1-EB2 also tested with CCCP treatment of the cells (Fig. 4D)
Endophilin B1 (mouse) = molecular target: T1, Endophilin B1 (mouse)
Endophilin B2 (human) = molecular target: T2, Endophilin B2 (human)
[1] = molecular target: T3, Endophilin B2 (human), Q9NR46; settings: remark: other sources report otherwise

Row | Binder | binding (Endophilin B1 (mouse)) | binding (Endophilin B2 (human)) | binding [1]
1 | B1 | binds | – | –
2 | B2 | – | binds | –
3 | B3 | binds | – | –
4 | B4 | – | – | binds
5 | B5 | no binding | no binding | –
